Source: PubChem BioAssay AID1508642 (National Center for Advancing Translational Sciences (NCATS), 2021)
Out of some 43,000 compounds screened, about 200 (0.47%) were called active. Another 12% or so got no clear call; they are omitted. Calls come from the whole dose curve; as a rule, active = well fitted cell-killing curve with a large enough effect; inconclusive = small, poorly fitted or top-dose-only effect, or effect the other way; inactive = flat fitted curve, though single readings scatter. This is one part of the list.

Test: Cell viability qHTS assay in S16 Pmp22-F2sN cells; note: nearly all actives have a fitted effect of over 65% in size
Conditions: S16 Pmp22-F2sN Schwann cells viability, CellTiter-Glo, 24 h; series mostly up to 57.5 µM; activity change, negative = cytotoxicity: at the top concentration
Procedure, shortened: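 Viability was measured by CellTiter-Glo luminescence (15 min, room temperature). This followed 24 h at 37 °C of compound exposure (23 nL pin transfer) in S16 Pmp22-F2sN Schwann cells, 500-1,000 per well.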
% is set by controls: 0 for no effect and ±100 for the full control effect.

SMILES | activity change, negative = cytotoxicity
O=C(COc1ccccc1)Nc1nnc(S(=O)(=O)N2CCCCCC2)s1 | inactive: 5.22%
CCOc1cc(C2CC(=O)Nc3nc(SCc4ccccc4)[nH]c(=O)c32)ccc1O (stereo unspecified) | inactive: -0.0544%
O=C(Nc1cccc2cccnc12)c1ccc(F)cc1 | inactive: -0.45%
CCc1ccc2oc(-c3ccc(NC(=O)c4cc(OC)c(OC)c(OC)c4)cc3)nc2c1 | inactive: 1.24%
CCOC(=O)c1ccc(N2C(=O)c3[nH]nc(-c4ccc(OCC)cc4)c3C2c2ccc(OC)cc2OC)cc1 (stereo unspecified) | inactive: 11%
CC(C)c1ccccc1NC(=O)CN1C(=O)c2cccc3cccc1c23 | inactive: -7.93%
CCC(=O)Nc1ccc2nc(SCc3ccc(C)cc3)sc2c1 | inactive: -2.49%
Cc1nc(N2CCCC2)c2c(C(=O)N3CCN(c4cccc(C)c4C)CC3)c(C)oc2n1 | inactive: -12.8%
CC(C)c1cc(-c2nc(-c3ccccc3)no2)n[nH]1 | inactive: 1.96%
CN(CC(=O)Nc1ccccc1Cl)S(=O)(=O)c1ccc(C(=O)N2CCOCC2)s1 | inactive: -0.142%
COc1ccc(S(=O)(=O)N2CCN(Cc3ccc4c(c3)OCO4)CC2)cc1OC | inactive: 5.45%
CCCSCCCNC(=O)c1ccc2c(c1)nc1n2CCCCC1 | inactive: 2.83%
Cc1ccc(Nc2cc(C)c(C#N)c3nc4ccccc4n23)cc1Cl | inactive: 5.45%
O=C(CN1CCSc2ccccc21)N1CCN(c2cccc(Cl)c2)CC1 | inactive: -1.49%
COC(=O)c1cnn(-c2ccc(C(=O)Nc3ccc(C(C)=O)cc3)cc2)c1N | inactive: 1.09%
Cc1ccc(-n2ncc3c(NC4CCCCC4)ncnc32)cc1 | inactive: 19.4%
Cc1ccc(Cc2nc3ccccc3nc2SCC(=O)Nc2cccc(C(F)(F)F)c2)cc1 | inactive: 14.5%
CC(C)(C)c1ccc(S(=O)(=O)NCc2nc3cccnc3n2Cc2ccccc2Cl)cc1 | inactive: -19.9%
Cc1nn(CC(=O)NCCc2ccccc2Cl)c(=O)c2nn(-c3ccccc3)c(C)c12 | inactive: -9.3%
COc1ccc(CNCc2c(C(=O)O)c(C)n(Cc3ccc(Cl)cc3)c2C)c(OC)c1 | inactive: -17.7%
Cc1ccc2c(c1)c1c(c(=O)n(-c3ccccc3C)c(=O)n1CC(=O)NCCC1=CCCCC1)n2C | inactive: 22.2%
O=C1COc2cc(S(=O)(=O)CCC(=O)N3CCN(c4cccc(Cl)c4)CC3)c(Cl)cc2N1 | inactive: -3.66%
CCC(C)NC(=O)c1sc2nc(C)c(C(=O)Nc3ccc(C)cc3C)c(-c3ccc(Cl)cc3)c2c1N (stereo unspecified) | inactive: 3.17%
CCN(CCCNC(=O)c1cc2c(=O)n(CC)c3ccccc3c2s1)c1cccc(C)c1 | inactive: 6.87%

SMILES | activity change, negative = cytotoxicity
Cc1ccccc1-c1nc(CS(=O)(=O)CC(=O)NC(C)c2ccccc2)c(C)o1 (stereo unspecified) | inactive: -2.11%
CCc1ccc(N2CCn3c2nc2c3c(=O)n(Cc3ccc(F)cc3)c(=O)n2C)cc1 | inactive: 1.27%
COc1ccc2c(c1)c(=O)c(S(=O)(=O)c1ccc(C)c(C)c1)cn2CC(=O)Nc1ccccc1 | inactive: -5.95%
Cc1ccc(-n2c3c(c(=O)[nH]c2=O)C(NC(=O)c2ccccc2F)(C(F)(F)F)C(=O)N3)cc1C (stereo unspecified) | inactive: -0.19%
Cc1ccc(CNc2ccc(-c3nc(-c4ccco4)no3)cc2[N+](=O)[O-])cc1 | inactive: 0.756%
Cc1ccc(-c2cc(C(=O)O)n(Cc3ccccc3)n2)cc1 | inactive: 4.12%
Cc1ccc(S(=O)(=O)c2nc(-c3ccccc3)oc2N2CCN(c3ccccc3)CC2)cc1 | inactive: -3.35%
COc1ccc(Cl)cc1NC(=O)CN(c1cc(C)cc(C)c1)S(=O)(=O)c1c(C)n[nH]c1C | inactive: 1.11%
COc1cc(-c2noc(C3CC(=O)N(c4ccc5c(c4)OCCO5)C3)n2)cc(OC)c1OC (stereo unspecified) | inactive: -6.22%
O=C(Nc1cc(F)ccc1F)C1COc2ccccc2C1 (stereo unspecified) | inactive: -1.78%
COc1ccc(NS(=O)(=O)c2ccc(NC(=O)N3CCCC3)cc2)cc1 | inactive: -21.7%
CCOC(=O)c1cc(-c2ccc(C)cc2)nn1Cc1ccccc1 | inactive: -8.65%
Cc1ccc(-c2cn3c(n2)sc2cc(C(=O)NCCCc4ccccc4)ccc23)cc1 | inactive: 0.295%
Cc1ccc(C2=Nc3ccccc3NC(c3ccncc3)=N2)cc1 | inactive: -3.19%
CNS(=O)(=O)c1cn(CC(=O)Nc2ccc(C)cc2C)cc1S(=O)(=O)NC | inactive: 0.213%
CCc1ccccc1NC(=O)C1CCCN(S(=O)(=O)c2cccc3nsnc23)C1 (stereo unspecified) | inactive: 2.11%
COc1ccc(CCNC(=O)CCc2c(C)nc3c(c(C)nn3-c3ccc(C)cc3)c2C)c(OC)c1 | inactive: 18.2%
COc1cc(C2c3c(-c4ccccc4O)n[nH]c3C(=O)N2Cc2ccncc2)ccc1O (stereo unspecified) | inactive: -19.6%
Cc1nc2ccc(S(=O)(=O)CCC(=O)Nc3ccc(F)cc3C)cc2s1 | inactive: 16%
CC(C)c1ccc(NC(=O)CCCc2nc(-c3ccc(Cl)cc3)no2)cc1 | inactive: -15.4%
COc1cc(Cl)c(NC(=O)C2CCN(S(=O)(=O)c3c(C)noc3/C=C/c3ccccc3F)CC2)c(OC)c1 | inactive: 3.7%
Cc1ccccc1NC(=O)c1ccccc1NC(=O)c1ccccc1Cl | inactive: 22%
Cc1cc(OCCCSc2nc(-c3ccc(C(C)(C)C)cc3)nc3cc(=O)[nH]n23)ccc1Cl | inactive: 1.81%
CCc1ccc(NC(=O)CSc2ccc3nnc(CCNS(=O)(=O)c4ccc(OC)cc4)n3n2)cc1 | inactive: -0.395%

SMILES | activity change, negative = cytotoxicity
CCc1ccc(NC(=O)C2CCN(c3cc(C)nc4c(-c5ccc(Cl)cc5)c(C)nn34)CC2)cc1 | inactive: 3.84%
O=C(Cn1cnc2c(nc3n2CCCCC3)c1=O)Nc1ccc(F)cc1 | inactive: 9.24%
CCCN(CCC)CCCNC(=O)Cn1cnc2onc(-c3ccc(F)cc3)c2c1=O | inactive: -5.1%
O=C(CCCn1c(=O)[nH]c2ccccc2c1=O)NCc1ccccc1Cl | inactive: -7.81%
COc1cccc(NC(=O)CSc2nc3ccc(NC(=O)c4ccco4)cc3s2)c1 | inactive: 3.27%
CCc1nn(CC(=O)NCCCOC)c(=O)c2cc3occc3n12 | inactive: 4.38%
COc1ccccc1NC(=O)Cn1c(=O)n(Cc2ccco2)c(=O)c2oc3ccccc3c21 | inactive: -0.3%
Cc1ccc2c(=O)cc(C(=O)Nc3c(C)n(C)n(-c4ccccc4)c3=O)oc2c1C | inactive: -20.6%
CCC(=O)NC1CC(=O)N(c2ccc3c(c2)OCCO3)C1 (stereo unspecified) | inactive: 1.68%
COC(=O)C(C)Sc1nnc2cc(C)c3cc(C)cc(C)c3n12 (stereo unspecified) | inactive: -0.73%
CN(C(=O)c1nc(-c2cccc(F)c2)n2c1CCCCC2)c1ccccc1F | inactive: -0.238%
Cc1cc(C)c2c(-n3cccc3)c(C(=O)NCCc3ccc(Cl)cc3)sc2n1 | inactive: 2.76%
CCCCNC(=O)C1CCN(C(=O)N2CC(C)Oc3ccc(Cl)cc32)CC1 (stereo unspecified) | inactive: 0.733%
CCOc1ccccc1-n1c(C)nc2cc(C(=O)O)ccc21 | inactive: -20.2%
Cc1cc(=O)[nH]c2nnc(SCc3ccc(Cl)c(Cl)c3)n12 | inactive: -7.76%
COc1cccc(NC(=O)CSc2cc(=O)n(C)c3ccc(Cl)cc23)c1 | inactive: 20.4%
CCCCN(C)CCCNC(=O)CN1C(=O)COc2ccc(S(=O)(=O)N3CCC(C)CC3)cc21 | inactive: 24.9%
CCOC(=O)N1CCc2c(sc(NCc3sccc3C)c2C(=O)Nc2cc(OC)ccc2OC)C1 | inactive: 0.541%
N#C/C(=C\c1ccc(F)cc1)C(=O)NCC1CCCO1 (stereo unspecified) | inactive: 0.509%
Cn1cnc(S(=O)(=O)N2CCCC(C(=O)NCc3ccccc3Cl)C2)c1 (stereo unspecified) | inactive: 18.2%
Cc1ccc(CCNC(=O)C(CC(C)C)NS(=O)(=O)c2ccc3c(c2)oc(=O)n3C)cc1 (stereo unspecified) | inactive: -3.08%
Cc1cccc(C(=O)N2CCc3cc(CNC(=O)c4ccnn4C)ccc32)c1 | inactive: -8.71%
CCOc1ccccc1NC(=O)Cc1coc2c(C)c(C)ccc12 | inactive: -10%
CCOc1ccccc1NC(=O)CN1C(=O)COc2ccc(S(=O)(=O)N3CCCCCC3)cc21 | inactive: 4.39%

SMILES | activity change, negative = cytotoxicity
COC(=O)c1ccc(NC(=O)CCc2c(C)nc3c(c(C)nn3-c3ccc(C)cc3)c2C)cc1 | inactive: -0.189%
COc1ccc(CCNc2nc(-c3ccc(C)cc3)cc(C(F)F)n2)cc1OC | inactive: 14.9%
Cc1cccc(NC(=O)c2oc3c(c2C)-c2[nH]ncc2CC3)c1C | inactive: 2.11%
CCOC(=O)C1CCN(c2c(C(=O)c3ccc(OCC)cc3)cnc3ccc(OC)cc23)CC1 | inactive: -23.3%
Oc1c(C(c2ccccc2F)N2CCOCC2)sc2nc(-c3ccco3)nn12 (stereo unspecified) | inactive: 16.3%
CCOC(=O)c1cccc(NC(=O)CC(c2cc(OC)c(OC)c(OC)c2)N2Cc3ccccc3C2=O)c1 (stereo unspecified) | inactive: -0.739%
CCc1nn2c(-c3ccccc3OC)ccnc2c1-c1ccc(F)cc1 | inactive: 9.94%
CCOc1ccc(NC(=O)CN2CCN(Cc3ccccc3)S2(=O)=O)cc1 | inactive: 3.49%
Cc1nc2c(C(=O)NCc3ccccc3Cl)c[nH]n2c(=O)c1Cc1cccc(Cl)c1 | inactive: -0.783%
CCN(c1ccccc1)S(=O)(=O)c1ccc2[nH]cc(C(=O)NC3CCCCC3)c(=O)c2c1 | inactive: -23.5%
CC(NC(=O)CSc1n[nH]c(-c2ccccc2Cl)n1)c1nc2ccccc2n1C (stereo unspecified) | inactive: 3.82%
Cc1c(Cl)cccc1NC(=O)CC(c1cccs1)N1Cc2ccccc2C1=O (stereo unspecified) | inactive: -17.7%
Cc1c(C(=O)Nc2ccc(F)c(F)c2)oc2ccc(S(=O)(=O)N3CCCCC3)cc12 | inactive: -16.2%
COc1ccc(N2CCN(C(=O)CCc3c(C)nc4c(-c5ccccc5)c(C)nn4c3C)CC2)cc1 | inactive: -0.203%
COc1ccccc1CNC(=O)CCCCn1c(=O)c2ccccc2n(Cc2c(C)cc(C)cc2C)c1=O | inactive: -9.29%
CN(CC(=O)Nc1cccc(Cl)c1)S(=O)(=O)c1ccc2[nH]c3c(c2c1)CCCC3 | inactive: 16.5%
COc1ccc2c(c1)cc(CNc1ccc(OC)c(OC)c1)c(=O)n2CC(=O)Nc1ccc(F)cc1 | inactive: 12%
COc1ccc(CCNC(=O)c2ccc3c(c2)N(Cc2ccc(C)cc2)CCS3)cc1OC | inactive: -26%
CC1=C(C(N)=O)C(c2ccc(C(C)C)cc2)n2nc(SCc3ccccc3)nc2N1 (stereo unspecified) | inactive: -3.91%
Cc1cc(C)n2nc(SCC(=O)Nc3cc(Cl)ccc3C)nc2n1 | inactive: 1.41%
CCOc1ccc(S(=O)(=O)N(CC(=O)Nc2cccnc2)c2ccccc2)cc1 | inactive: 4.16%
CC(C)(C)c1ccc(-c2nc3cc(NC(=O)c4cc5ccccc5o4)ccc3o2)cc1 | inactive: 2.96%
COc1ccc(CNC(=O)CCc2cn(Cc3cc(C)ccc3C)c3ccccc23)cc1OC | inactive: 8.28%
O=c1cc(-c2ccccc2)nc(SCc2nc(-c3ccc(C(F)(F)F)cc3)no2)[nH]1 | inactive: 3.41%
